Values joined by “and” are separate entries in the source; they are usually repeats but may differ in a detail not shown here. Identical values can stand only once. ± gives the uncertainty stated by the source. The source gives many values for each of these; only a part stands here.
Assay: xn = mol fraction of the nth substance listed

Compound: CC(C)O + O
- viscosity (293.15 K, 100 kPa, x1 = 0.167): 3.627 ± 0.22 mPa·s
- viscosity (293.15 K, 101 kPa, x1 = 0.023): 1.51 ± 0.01 mPa·s
- viscosity (293.15 K, 101 kPa, x1 = 0.06): 2.42 ± 0.02 mPa·s
- viscosity (293.15 K, 101 kPa, x1 = 0.101): 3.15 ± 0.03 mPa·s
- viscosity (293.15 K, 101 kPa, x1 = 0.19): 3.78 ± 0.04 mPa·s
- viscosity (293.15 K, 101 kPa, x1 = 0.3): 3.726 ± 0.024 mPa·s
- viscosity (293.15 K, 101 kPa, x1 = 0.331): 3.75 ± 0.05 mPa·s
- viscosity (293.15 K, 101 kPa, x1 = 0.4): 3.481 ± 0.023 mPa·s
- viscosity (293.15 K, 101 kPa, x1 = 0.448): 3.47 ± 0.05 mPa·s
- viscosity (293.15 K, 101 kPa, x1 = 0.462): 3.4 ± 0.05 mPa·s
- viscosity (293.15 K, 101 kPa, x1 = 0.5): 3.18 ± 0.021 mPa·s
- viscosity (293.15 K, 101 kPa, x1 = 0.6): 2.888 ± 0.019 mPa·s
- viscosity (293.15 K, 101 kPa, x1 = 0.615): 2.96 ± 0.06 mPa·s
- viscosity (293.15 K, 101 kPa, x1 = 0.7001): 2.655 ± 0.018 mPa·s
- viscosity (293.15 K, 101 kPa, x1 = 0.788): 2.6 ± 0.06 mPa·s
- viscosity (293.15 K, 101 kPa, x1 = 0.8999): 2.395 ± 0.017 mPa·s
- viscosity (293.15 K, 101.33 kPa, x1 = 0.0322): 1.61 ± 0.016 mPa·s
- viscosity (293.15 K, 101.33 kPa, x1 = 0.114): 3.145 ± 0.031 mPa·s
- viscosity (293.15 K, 101.33 kPa, x1 = 0.231): 3.817 ± 0.038 mPa·s
- viscosity (293.15 K, 101.33 kPa, x1 = 0.25): 3.859 ± 0.039 mPa·s
- viscosity (293.15 K, 101.33 kPa, x1 = 0.268): 3.843 ± 0.038 mPa·s
- viscosity (298.15 K, 100 kPa, x1 = 0.1): 2.44 ± 0.099 mPa·s
- viscosity (298.15 K, 100 kPa, x1 = 0.167): 2.951 ± 0.18 mPa·s
- viscosity (298.15 K, 100 kPa, x1 = 0.25): 3.049 ± 0.12 mPa·s
- viscosity (298.15 K, 100 kPa, x1 = 0.4): 2.865 ± 0.12 mPa·s
- viscosity (298.15 K, 100 kPa, x1 = 0.5): 2.63 ± 0.11 mPa·s
- viscosity (298.15 K, 100 kPa, x1 = 0.8): 2.104 ± 0.086 mPa·s
- viscosity (298.15 K, 100 kPa, x1 = 0.9): 2.031 ± 0.083 mPa·s
- viscosity (298.15 K, 101 kPa, x1 = 0.0322): 1.45 ± 0.29 mPa·s and 1.424 ± 0.29 mPa·s
- viscosity (298.15 K, 101 kPa, x1 = 0.0439): 1.576 ± 0.023 mPa·s
- viscosity (298.15 K, 101 kPa, x1 = 0.0764): 2.198 ± 0.028 mPa·s
- viscosity (298.15 K, 101 kPa, x1 = 0.114): 2.741 ± 0.55 mPa·s and 2.801 ± 0.56 mPa·s
- viscosity (298.15 K, 101 kPa, x1 = 0.1497): 2.854 ± 0.033 mPa·s
- viscosity (298.15 K, 101 kPa, x1 = 0.2173): 3.097 ± 0.035 mPa·s
- viscosity (298.15 K, 101 kPa, x1 = 0.231): 3.481 ± 0.72 mPa·s and 3.422 ± 0.7 mPa·s
- viscosity (298.15 K, 101 kPa, x1 = 0.2855): 3.053 ± 0.035 mPa·s
- viscosity (298.15 K, 101 kPa, x1 = 0.3): 3.068 ± 0.02 mPa·s
- viscosity (298.15 K, 101 kPa, x1 = 0.4): 2.894 ± 0.019 mPa·s
- viscosity (298.15 K, 101 kPa, x1 = 0.4036): 2.862 ± 0.033 mPa·s
- viscosity (298.15 K, 101 kPa, x1 = 0.412): 3.38 ± 0.68 mPa·s
- viscosity (298.15 K, 101 kPa, x1 = 0.413): 3.383 ± 0.68 mPa·s
- viscosity (298.15 K, 101 kPa, x1 = 0.5): 2.667 ± 0.018 mPa·s and 2.646 ± 0.032 mPa·s
- viscosity (298.15 K, 101 kPa, x1 = 0.5263): 2.581 ± 0.031 mPa·s
- viscosity (298.15 K, 101 kPa, x1 = 0.6): 2.441 ± 0.017 mPa·s
- viscosity (298.15 K, 101 kPa, x1 = 0.6897): 2.283 ± 0.029 mPa·s
- viscosity (298.15 K, 101 kPa, x1 = 0.7001): 2.256 ± 0.015 mPa·s
- viscosity (298.15 K, 101 kPa, x1 = 0.73): 2.8 ± 0.56 mPa·s and 2.757 ± 0.56 mPa·s and 2.774 ± 0.56 mPa·s
- viscosity (298.15 K, 101 kPa, x1 = 0.7874): 2.177 ± 0.028 mPa·s
- viscosity (298.15 K, 101 kPa, x1 = 0.7999): 2.127 ± 0.015 mPa·s
- viscosity (298.15 K, 101 kPa, x1 = 0.8475): 2.106 ± 0.027 mPa·s
- viscosity (298.15 K, 101 kPa, x1 = 0.8999): 2.054 ± 0.014 mPa·s
- viscosity (303.15 K, 100 kPa, x1 = 0.167): 2.43 ± 0.15 mPa·s
- viscosity (303.15 K, 101 kPa, x1 = 0.1): 2.047 ± 0.018 mPa·s
- viscosity (303.15 K, 101 kPa, x1 = 0.2): 2.532 ± 0.021 mPa·s
- viscosity (303.15 K, 101 kPa, x1 = 0.3): 2.551 ± 0.017 mPa·s and 2.579 ± 0.021 mPa·s
- viscosity (303.15 K, 101 kPa, x1 = 0.4): 2.425 ± 0.016 mPa·s and 2.458 ± 0.02 mPa·s
- viscosity (303.15 K, 101 kPa, x1 = 0.5): 2.253 ± 0.015 mPa·s and 2.285 ± 0.018 mPa·s
- viscosity (303.15 K, 101 kPa, x1 = 0.6): 2.076 ± 0.014 mPa·s
- viscosity (303.15 K, 101 kPa, x1 = 0.7): 1.96 ± 0.015 mPa·s
- viscosity (303.15 K, 101 kPa, x1 = 0.7001): 1.934 ± 0.013 mPa·s
- viscosity (303.15 K, 101 kPa, x1 = 0.7999): 1.824 ± 0.013 mPa·s
- viscosity (303.15 K, 101 kPa, x1 = 0.8): 1.854 ± 0.014 mPa·s
- viscosity (303.15 K, 101 kPa, x1 = 0.8999): 1.772 ± 0.012 mPa·s
- viscosity (303.15 K, 101 kPa, x1 = 0.9): 1.79 ± 0.014 mPa·s
- viscosity (303.15 K, 101.33 kPa, x1 = 0.0322): 1.23 ± 0.012 mPa·s
- viscosity (303.15 K, 101.33 kPa, x1 = 0.114): 2.072 ± 0.021 mPa·s
- viscosity (303.15 K, 101.33 kPa, x1 = 0.231): 2.558 ± 0.026 mPa·s
- viscosity (308.15 K, 101 kPa, x1 = 0.0322): 1.085 ± 0.22 mPa·s and 1.072 ± 0.22 mPa·s
- viscosity (308.15 K, 101 kPa, x1 = 0.1): 1.718 ± 0.015 mPa·s
